From the supplement of paper PMC12217912
This is one part of the list. Sequences were assembled here from the parent chain. Inactive controls read about 0.05.

B1: TEV protease; numbered along this chain (parent)
chain: MGESLFKGPRDYNPISSSICHLTNESDGHTTSLYGIGFGPFIITNKHLFRRNNGTLVVQSLHGVFKVKDTTTLQQHLVDGRDMIIIRMPKDFPPFPQKLKFREPQREERICLVTTNFQTKSMSSMVSDTSCTFPSGDGIFWKHWIQTKDGQCGSPLVSTRDGFIVGIHSASNFTNTNNYFTSVPKNFMELLTNQEAQQWVSGWRLNADSVLWGGHKVFMVKPEEPFQPVKEATQL

Variants of: B1
Assay: raw area under fraction-flipped curve 0-4 h after induction (AUC4h, not background-subtracted), DNA-recorder readout of cleavage of the substrate (dimensionless); higher = more cleavage of the substrate by the protease variant
Details: temperature: 34 °C; time window: 0-4 h after rhamnose induction
Experimental: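 In vivo DNA recorder in E. coli TOP10(DE3) ΔrhaA at 34 °C. Each TEVp single-site mutant (parent TEVp 0) is paired with a single-site variant of the 7-mer TEVs (canonical ENLYFQ|S). The substrate sits between flexible linkers in a Bxb1-sfGFP-TEVs-SsrA fusion, so cleavage stabilises Bxb1 and speeds flipping of a recombination array, read by NGS. The value is the raw area under the fraction-flipped curve over 0-4 h after rhamnose induction (AUC4h), with ≥20 reads per time point. It is not background-subtracted; inactive controls average about 0.047.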
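Also: Bxb1 expression induced with 0.2% (w/v) L-rhamnose at OD600 near 0.5, cultures sampled hourly, flipped fraction per protease–substrate barcode pair counted by paired-end Illumina sequencing.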

| Variant | area with substrate ENLYFQA | area with substrate ENLYFQC | area with substrate ENLYFQD | area with substrate ENLYFQE | area with substrate ENLYFQF | area with substrate ENLYFQG | area with substrate ENLYFQH | area with substrate ENLYFQI | area with substrate ENLYFQL | area with substrate ENLYFQM | area with substrate ENLYFQN | area with substrate ENLYFQQ | area with substrate ENLYFQR | area with substrate ENLYFQS | area with substrate ENLYFQT | area with substrate ENLYFQV | area with substrate ENLYFQW | area with substrate ENLYFQY | area with substrate ENLYFQK | area with substrate ENLYFQP |
| --- | --- | --- | --- | --- | --- | --- | --- | --- | --- | --- | --- | --- | --- | --- | --- | --- | --- | --- | --- | --- |
| M122C | 0.108 | 0.124 | 0.0769 | 0.0726 | 0.0637 | 0.096 | 0.0771 | 0.0486 | 0.0682 | 0.0839 | 0.0783 | 0.0457 | 0.0612 | 0.103 | 0.071 | 0.0566 | 0.0702 | 0.0769 |  |  |
| M122D | 0.099 | 0.11 |  |  | 0.0571 | 0.0953 | 0.0765 | 0.0617 | 0.0909 |  | 0.0625 |  |  | 0.0998 | 0.0609 | 0.0682 | 0.066 | 0.0707 | 0.0658 | 0.0619 |
| M122S | 0.14 | 0.134 |  |  | 0.0788 |  | 0.0829 |  | 0.0617 | 0.104 |  |  | 0.0611 | 0.117 | 0.046 | 0.0451 |  |  |  | 0.0566 |
| V126L | 0.08 |  |  |  |  | 0.127 |  |  | 0.0627 |  | 0.0859 |  |  | 0.108 |  |  | 0.0502 |  |  | 0.0628 |
| V126S | 0.0924 | 0.112 |  |  |  | 0.123 |  | 0.0556 | 0.0552 | 0.181 | 0.0801 |  | 0.06 | 0.114 | 0.0628 | 0.0691 | 0.0599 | 0.0795 | 0.0938 | 0.0499 |
| S127F | 0.1 | 0.105 |  | 0.0696 | 0.0943 | 0.0999 | 0.0882 | 0.0297 | 0.0677 | 0.101 | 0.0853 | 0.0577 | 0.0551 | 0.114 | 0.0667 |  | 0.0643 | 0.096 | 0.0608 | 0.0277 |
| S127V | 0.114 |  |  |  |  |  |  |  | 0.055 | 0.098 | 0.104 |  | 0.0724 | 0.108 | 0.0776 |  |  |  | 0.0773 | 0.0644 |
| T129S | 0.101 | 0.0947 |  |  | 0.0844 | 0.11 | 0.0866 |  | 0.0677 | 0.0717 | 0.0732 | 0.0701 | 0.0598 | 0.112 | 0.0634 |  | 0.0646 |  | 0.0709 |  |
| C131R | 0.0701 |  | 0.0317 |  |  |  |  |  | 0.0649 |  |  |  | 0.054 | 0.0955 | 0.0416 |  | 0.0486 |  |  | 0.0595 |
| T132L | 0.0797 | 0.0874 |  |  |  | 0.101 |  | 0.0641 |  | 0.0739 | 0.0693 | 0.0526 | 0.0531 | 0.0911 | 0.0562 | 0.0656 | 0.0592 | 0.0608 | 0.0457 | 0.0398 |
| T132P | 0.11 | 0.0549 |  | 0.0789 |  | 0.0408 | 0.0399 | 0.0508 | 0.0523 |  | 0.047 |  | 0.0534 | 0.0678 | 0.0557 | 0.0417 | 0.0532 |  |  | 0.061 |
| F133T | 0.0946 | 0.104 | 0.06 |  |  |  | 0.112 | 0.0668 |  | 0.0836 | 0.0679 | 0.086 |  | 0.115 |  | 0.0775 |  | 0.0847 | 0.0966 |  |
| P134I | 0.085 |  | 0.0591 |  | 0.0592 | 0.0954 | 0.0657 | 0.0238 | 0.0562 | 0.0749 | 0.0691 | 0.0625 | 0.0489 | 0.0838 | 0.0349 | 0.0644 | 0.0856 | 0.0607 |  | 0.0615 |
| S135Q | 0.0793 | 0.0592 | 0.0617 | 0.0532 | 0.0589 | 0.0633 | 0.0594 | 0.0681 | 0.0403 | 0.0509 | 0.0253 | 0.0778 | 0.0689 | 0.076 | 0.0553 |  | 0.0566 | 0.0612 | 0.0625 | 0.0565 |
| D137E | 0.0584 | 0.127 | 0.0764 |  |  | 0.109 | 0.0895 |  | 0.0678 | 0.087 | 0.0766 | 0.0661 | 0.0651 | 0.112 | 0.0779 | 0.0795 | 0.0816 |  | 0.0471 |  |
| I139H | 0.0836 | 0.133 |  |  |  |  | 0.0721 | 0.0497 |  |  | 0.0663 | 0.0796 | 0.0703 | 0.0941 |  | 0.0561 |  |  |  |  |
| F140D | 0.0549 | 0.065 | 0.0667 | 0.071 | 0.0574 | 0.0328 |  | 0.0508 | 0.062 | 0.0494 |  | 0.0629 | 0.0537 | 0.0595 |  | 0.0752 | 0.0443 |  | 0.0729 | 0.0681 |
| W141T | 0.061 | 0.0665 | 0.0628 |  |  |  |  |  | 0.0416 | 0.0591 | 0.0585 |  | 0.0542 | 0.0637 |  |  | 0.049 |  | 0.0593 |  |
| K142C | 0.0886 |  |  | 0.0602 |  | 0.0796 |  | 0.0635 | 0.068 |  | 0.0724 |  | 0.0745 | 0.0914 |  |  | 0.0592 |  | 0.0572 | 0.0624 |
| K142Q | 0.0996 | 0.113 | 0.0675 |  | 0.0675 |  |  | 0.032 | 0.0783 | 0.0917 | 0.0867 |  | 0.0584 | 0.096 | 0.0704 | 0.0571 |  |  | 0.0678 | 0.0641 |
| H143T | 0.0606 | 0.0982 | 0.0554 |  | 0.0618 |  | 0.0707 | 0.0615 | 0.0599 | 0.0732 |  |  | 0.0558 | 0.0807 | 0.0587 |  | 0.0555 |  | 0.0704 |  |
| I145W | 0.0632 | 0.0666 | 0.0468 |  | 0.031 | 0.0467 | 0.045 |  | 0.0539 |  | 0.0537 |  | 0.0588 | 0.0569 |  |  | 0.0486 |  | 0.0537 | 0.0542 |
| Q146L | 0.126 | 0.149 | 0.0597 |  | 0.0759 |  |  |  |  | 0.122 | 0.0749 |  | 0.0574 | 0.13 | 0.0689 |  | 0.0701 |  |  |  |
| T147C | 0.0951 |  |  |  |  | 0.139 | 0.065 |  |  |  |  |  |  | 0.0861 | 0.0682 |  | 0.0689 |  |  | 0.0667 |
| T147D | 0.0498 |  |  | 0.079 |  |  | 0.049 |  |  |  | 0.0737 | 0.0829 | 0.0586 | 0.0638 | 0.0688 |  |  |  |  |  |
| T147L | 0.0948 | 0.0787 |  |  | 0.0419 | 0.0908 | 0.0683 | 0.0952 | 0.0717 | 0.0539 | 0.0646 |  | 0.0555 | 0.0774 | 0.0549 | 0.0604 | 0.0743 |  | 0.0559 | 0.0492 |
| K148D | 0.0851 | 0.0602 | 0.0865 |  | 0.0553 |  |  | 0.0585 |  | 0.0661 |  |  | 0.0598 | 0.0774 | 0.0415 |  | 0.0587 | 0.0668 | 0.0762 |  |
